Experimental data taken from PMC10668032.
The other results are listed elsewhere or left out. At the low end of the ranking the order means little.

target: SIX1 homeodomain (reference allele) (UniProt Q15475); experiment: universal protein binding microarray; conditions: Universal all-10-mer PBM (8x60K, AMADID 030236), 300 nM GST-tagged protein, Alexa Fluor 488 anti-GST; buffer, salt, pH and temperature not stated; high values mean tight binding; most listed sequences are background and not binding sites; double strand, one strand shown

| Sequence | binding signal |
| --- | --- |
| AACTGTCT | -0.0278 E-score |
| AAGAGTAC | -0.0921 E-score |
| ACTCTTTG | -0.281 E-score |
| GGTGCAAC | -0.0175 E-score |
| CCAATGAA | -0.17 E-score |
| CTCAAATC | -0.152 E-score |
| CCCCAACC | -0.109 E-score |
| AAGTGGCT | -0.254 E-score |
| AGGTCAGC | 0.0296 E-score |
| GCTCGGAC | -0.197 E-score |
| CTGCAATA | 0.0192 E-score |
| GATTAATA | 0.301 E-score |
| ACGTTGGG | -0.151 E-score |
| ACCCGAGG | 0.0485 E-score |
| CCTCGCAA | -0.143 E-score |
| GCACTACA | -0.0588 E-score |
| AATGCGTC | -0.221 E-score |
| AAAAAGTG | -0.24 E-score |
| AACCCACA | 0.0233 E-score |
| ACCCCCGA | 0.217 E-score |
| GATGCACA | -0.0648 E-score |
| AGTTTACG | -0.138 E-score |
| GGCCGGAA | -0.0656 E-score |
| CAAGTGTA | 0.00636 E-score |

| Sequence | binding signal |
| --- | --- |
| TGGTGGAA | -0.125 E-score |
| AACTTAAC | -0.161 E-score |
| ACGTAGTG | -0.0157 E-score |
| CTTCCTAA | -0.0104 E-score |
| AATCATGG | -0.18 E-score |
| GACAGCCA | -0.165 E-score |
| AGCAGTCA | -0.314 E-score |
| AAAGACAT | -0.23 E-score |
| AACTTGCA | -0.121 E-score |
| GCCAGGAA | -0.112 E-score |
| AGAATATA | 0.11 E-score |
| GGCGGAGA | 0.0982 E-score |
| ATAATCCA | 0.27 E-score |
| ATTGGTGA | -0.034 E-score |
| AACTCACC | -0.112 E-score |
| ACCCCCGT | 0.0468 E-score |
| GCACTTAA | -0.214 E-score |
| CGGAACAA | 0.0488 E-score |
| CAAGGCTG | -0.127 E-score |
| TCCGTGCA | -0.0125 E-score |
| GCCATCGA | -0.197 E-score |
| CATGGTTC | 0.0116 E-score |
| AAACGAAG | -0.203 E-score |
| CTTTGGGA | -0.0986 E-score |

| Sequence | binding signal |
| --- | --- |
| GCTGGGAC | -0.0965 E-score |
| ACGAGTTG | -0.118 E-score |
| CATGTATC | 0.403 E-score |
| CGTTTGAG | 0.0996 E-score |
| AGAGTGTG | -0.0948 E-score |
| AACCGTCC | -0.292 E-score |
| GTAGTCAA | -0.0087 E-score |
| CGCGTTAG | -0.0928 E-score |
| GCACATTA | -0.0153 E-score |
| CCCTAAGC | -0.0531 E-score |
| ATACGCAG | 0.314 E-score |
| TCCACACA | -0.0782 E-score |
| AGGCCTGC | -0.256 E-score |
| CGTTGCAG | -0.0761 E-score |
| ACGCCTAC | -0.306 E-score |
| AGGTCTTC | -0.141 E-score |
| AGCCATCA | -0.211 E-score |
| ACTCTATC | 0.111 E-score |
| ACTGGCGG | -0.128 E-score |
| CGAATGGC | -0.249 E-score |
| GATTCTCA | 0.104 E-score |
| TCTCGAAA | -0.0894 E-score |
| GATATGAA | 0.259 E-score |
| AGGCAGTC | -0.213 E-score |

| Sequence | binding signal |
| --- | --- |
| TAGACGGA | 0.137 E-score |
| AGCCCCTG | -0.0581 E-score |
| CGACGATA | 0.342 E-score |
| AAAGCAGG | -0.144 E-score |
| AGGAGAAT | 0.0659 E-score |
| CTGGGCGC | -0.219 E-score |
| ATGCTCGG | -0.141 E-score |
| CGGGCATC | 0.0739 E-score |
| AACAAACC | -0.0424 E-score |
| GATCAGGA | 0.339 E-score |
| GATCCGCA | 0.411 E-score |
| CTATGGAG | -0.0755 E-score |
| ATCGCAAC | 0.198 E-score |
| TGGCGACA | -0.0416 E-score |
| ACCAACCC | -0.0303 E-score |
| CGAGCTCC | -0.0198 E-score |
| CTTAAAAA | -0.239 E-score |
| AGGAGCTC | -0.13 E-score |
| CTGACCTA | -0.114 E-score |
| CAACCCGC | -0.117 E-score |
| CCACCGAC | -0.192 E-score |
| TGAAAACA | -0.0728 E-score |
